ChEMBL document CHEMBL4888484, “Replenishing the malaria drug discovery pipeline: Screening and hit evaluation of the MMV Hit Generation Library 1 (HGL1) against asexual blood stage Plasmodium falciparum ,using a nano luciferase reporter read-out” (2022)
In all, about 150,000 compounds went through this assay and about 540 (0.36%) showed an effect of 50% or more. This is one part of the list.

system: Plasmodium falciparum; experiment: Primary screen in NF54 nanoGlo assay, in single point, at 2uM, 72h; a lower Z score goes with more inhibition; format: functional, Erythrocyte; details: timepoint 72 hour

| Structure (SMILES) | % Inhibition [%] | Z score |
| --- | --- | --- |
| COc1cc(Br)ccc1C(=O)N(C)c1cccnc1 | -13 | 1.63 |
| CC(C)[C@@H](O)CN1CCN(c2ccsc2C#N)CC1 | -7 | 0.74 |
| O=C(c1cnc(C2CC2)nc1)N1CCN(C(=O)c2c(F)cccc2F)CC1 | -1 | 0.1 |
| COc1cccc(CN2C(=O)N[C@@](C)(C3CCN(Cc4cc(C)cc(C)c4)CC3)C2=O)c1OC | -13 | 1.82 |
| Cc1cnc(C)c(N2CCC([C@H](O)C(F)(F)F)CC2)n1 | -10 | 1.52 |
| N#Cc1cccc(C(=O)Nc2ccc3c(c2)OC2(CCCCC2)O3)c1 | -11 | 1.17 |
| O=C(NC1CN(Cc2ccccc2)CCC1CO)C1=COCCO1 (centres undefined) | 1 | -0.19 |
| CC(C)(C(=O)N1CCC2(CC1)NC(=O)NC2=O)c1ccccc1 | -8 | 1.25 |
| O=S1(=O)CCN(C2CCN(S(=O)(=O)c3ccccc3OC(F)(F)F)CC2)CC1 | -6 | 0.64 |
| COC(=O)c1ccc(NC(=O)c2ccc(-n3ccnc3C)nn2)cc1 | -4 | 0.78 |
| Cc1cc(C(=O)NC(C)C2CCCO2)c(C)n1-c1ccc2c(c1)OCCO2 (centres undefined) | -3 | 0.29 |
| CC(NC(=O)Nc1cccc(Cl)c1)C(c1cccs1)N1CCCC1 (centres undefined) | -10 | 1.06 |
| COCCN(CCNC(=O)N1CCC(C)CC1)C1CC1 | 5 | -0.4 |
| COc1ccc(CC(=O)Nc2c(C(=O)c3ccc(OC)c(Cl)c3)oc3ccccc23)cc1 | 3 | -0.35 |
| CCCC(=O)O[C@@H](C)Cc1cccnc1 | -8 | 0.83 |
| CN1CCC(N(C)C[C@H](NC(=O)Cc2ccc(Br)cc2)c2ccccc2)CC1 | 14 | -1.79 |
| CCCc1c(C(=O)N2CCN(c3nc4nccc(-c5cccc(C)c5)n4n3)CC2)cnn1-c1ccccc1 | -2 | 0.19 |
| CC(C)C[C@H](NC(=O)c1cnc(-c2cccnc2)nc1O)c1ncnn1C | -10 | 1.27 |
| CN(C)CCNC(=O)CCc1cc2n(n1)CCN(c1cccc(C#N)n1)C2 | -21 | 2.23 |
| Nc1ncnc2cc(C(=O)N3CCOCC4(CCCC4)C3)ccc12 | -7 | 1.03 |
| Cc1noc(C)c1CC(=O)N[C@H]1CC(=O)N(Cc2cccc3ccccc23)C1 | -9 | 1.25 |
| COC(=O)[C@@H](Cc1cccnc1)NC(=O)[C@H]1CN(C(=O)Nc2ccccc2)CCN1S(=O)(=O)c1ccccc1 | 3 | -0.41 |
